# Assay results from PubChem BioAssay AID1347073 (National Center for Advancing Translational Sciences (NCATS), 2019).
# Hit rate of the full screen: of about 45,000 compounds, about 200 (0.44%) were called active. Inconclusive results (about 7%) are left out. The call rests on the fitted dose curve; in most records, active means well fitted activation curve with a large enough effect; inconclusive means small, poorly fitted or top-dose-only effect; inactive means no such curve, though single readings can be large or run the other way. The list shows a part of the results.
# Test: qHTS of TDP-43 Inhibitors: NCGC Sytravon Library Screen; further: nearly all actives have a fitted effect of over 55% in size; on growth rescue (activation): 0% is about no effect
# Conditions: yeast TDP-43 toxicity rescue, BacTiter-Glo growth, 24 h; series mostly up to 46.1 µM; growth rescue (activation): at the top concentration
# Procedure, shortened: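 TDP-43-expressing yeast, pregrown in raffinose, seeded at OD600 0.02 in galactose medium with compound for 24 hr at 30 deg C. Growth read by BacTiter-Glo luminescence, so rescue of toxicity appears as activation.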
# Potency means the concentration at half of the fitted maximal effect.
SMILES,growth rescue (activation),Potency
O=C(COC(=O)c1ccccc1Br)Nc1ccccc1F,inactive: 10.9%,–
CSc1nsc(SCC(=O)Nc2ccccc2)n1,inactive: -4.34%,–
CC(C)(C)SCCNC(=O)Nc1ccccc1,inactive: 20.7%,–
CC(C)CN1C(=O)/C(=C(/C#N)C(=O)NC2CCCCC2)c2ccccc21,inactive: 7.5%,–
O=c1c2ccccc2ncn1/N=C/c1ccccc1,inactive: -15.9%,–
COc1ccc(/C=N/NC(=O)c2ccc(N(C)S(=O)(=O)c3ccccc3)cc2)cc1OC,inactive: -12.1%,–
NS(=O)(=O)c1ccc(N/N=C/C=C/c2ccccc2[N+](=O)[O-])cc1,inactive: 7.71%,–
NC1=NC(=O)CC(C(=O)NCCc2ccccc2)S1 (stereo not given),inactive: -7.09%,–
CC1(C(=O)O)CCCN1C(=O)c1cccc(F)c1 (stereo not given),inactive: 13.3%,–
NC(=O)c1nc(-c2ccc(F)c(F)c2)nc2c1[nH]c(=O)n2-c1cccc(Cl)c1,inactive: 6.16%,–
O=C(CN1CCCCC1)NNc1nc(-c2ccccc2)c2cc(Br)ccc2n1,inactive: -4.54%,–
N#C/C(=C/c1ccc(-c2ccccc2[N+](=O)[O-])o1)C(=O)NCCN1CCCCC1,inactive: -0.177%,–
CN(C)S(=O)(=O)c1cccc(C(=O)NC2CCCc3ccccc32)c1 (stereo not given),inactive: 21.9%,–
COc1cc(/C=C2\SC(=S)N(CCC(=O)Nc3ccc(O)cc3)C2=O)cc(OC)c1OC,inactive: -9.1%,–
O=c1c([N+](=O)[O-])c(N2CCCC2)c2ccccc2n1-c1ccccc1,inactive: 3.59%,–
Cc1cc(Nc2ccccc2)nc(NCc2ccccc2)n1,inactive: 7.44%,–
Cc1[nH]nc2c1C(c1ccc(OC(=O)c3ccco3)cc1)C(C#N)=C(N)O2 (stereo not given),inactive: 5.63%,–
COc1ccc(-n2nc(C(=O)NCC(=O)N3CCCC3)c3ccccc3c2=O)cc1Cl,inactive: -4.47%,–
CCN1C(=O)CCCc2ccccc21,inactive: 15.8%,–
CC(=O)c1cccc(NC(=O)N2CCC(NC(=O)c3ccco3)CC2)c1,inactive: -18.3%,–
CCOC(=O)c1c(C)[nH]c(C(=O)COC(=O)[C@H](C)N2C(=O)C3CCCCC3C2=O)c1C (stereo not given in full),inactive: 3.73%,–
Cn1c(=NC(=O)c2ccc(S(=O)(=O)N3CCCc4ccccc43)cc2)sc2cc(F)ccc21,inactive: -5.39%,–
CCOC(=O)c1ccc[n+](CC(=O)Nc2cc(C(F)(F)F)ccc2Cl)c1,inactive: 7.92%,–
N/C(=N\OC(=O)COc1ccc(Br)cc1Cl)c1ccccn1,inactive: 1.86%,–
Cc1cc(C)n2nc(C(=O)N/N=C/c3ccc(O)cc3)nc2n1,inactive: 1.06%,–
COCCOC(=O)C1=C(C)N(c2ccccc2)C(=O)NC1c1cccc([N+](=O)[O-])c1 (stereo not given),inactive: 17.4%,–
CC(C(=O)Nc1ccc(C#N)cc1)N(C)Cc1cccs1 (stereo not given),inactive: 7.46%,–

SMILES,growth rescue (activation),Potency
CCOC(=O)Cc1csc(NC(=O)C(NC(=O)C2CCCCC2)C(C)C)n1 (stereo not given),inactive: -1.27%,–
Cc1ccccc1C(=O)NC1CCN(CC(=O)NCc2ccccc2)CC1,inactive: -15.5%,–
O=C(NNC(=O)C1COc2ccccc2O1)c1cccc([N+](=O)[O-])c1 (stereo not given),inactive: -3.4%,–
Cc1ccc(S(=O)(=O)CCC(=O)N(C)C2CCCCC2)cc1,inactive: 11%,–
CCOc1ccc(NC(=O)CSc2nnc(C3CC3)n2C)cc1,inactive: -3.61%,–
O=C(COc1ccc2ccc(=O)oc2c1)NC1CCS(=O)(=O)C1 (stereo not given),inactive: -5.45%,–
Cc1ccccc1C(=O)Nc1sc2c(c1C(=O)NCc1ccco1)CCC(C(C)(C)C)C2 (stereo not given),inactive: 14.4%,–
Cc1ccc2nc3c(cc(C(=O)NCc4ccco4)c(=N)n3Cc3ccco3)c(=O)n2c1,inactive: 0.758%,–
CC1CCCN(C(=O)Nc2cccc(NC(=O)N3CCCC(C)C3C)c2)C1C (stereo not given),inactive: 13.3%,–
CC(=O)N1CCN(S(=O)(=O)c2cccc(C(=O)NCc3ccc(F)cc3)c2)CC1,inactive: 12.6%,–
CN(CCC#N)C(=O)COC(=O)c1ccccc1OCc1ccccc1Cl,inactive: 18.4%,–
C=CCOc1ccc(C2/C(=C(/O)c3ccc(OC)cc3)C(=O)C(=O)N2CCN2CCNCC2)cc1 (stereo not given),inactive: 10.9%,–
CCOC(=O)c1cc(CC)sc1/N=C/C1C(=O)CCCC1=O,inactive: 35.7%,–
Cc1c(NS(=O)(=O)c2cccc(C(=O)N3CCCC3)c2)c(=O)n(-c2ccccc2)n1C,inactive: 33.4%,–
CC(=O)NC(CC(=O)NCC(=O)Nc1ccc(F)c(F)c1)c1ccccc1 (stereo not given),inactive: 4.85%,–
O=[N+]([O-])c1ccc(O)c(C=Nc2cccc3ncccc23)c1,inactive: -32.2%,–
COc1ccc(NC(=O)NC2(C(=O)N3CCCC3)CCCCC2)cc1,inactive: -1.42%,–
C/C(=N/NC(=O)CN1CCN(Cc2ccccc2Cl)CC1)c1ccncc1,inactive: 14.2%,–
CC(=O)c1cc2cccc(OC3(C)CCN(Cc4ccc5ccccc5c4)C3)c2o1 (stereo not given),inactive: 3.38%,–
CC(C)CC(C(=O)OCC(=O)c1c(N)n(C)c(=O)n(C)c1=O)N1C(=O)c2ccccc2C1=O (stereo not given),inactive: -6.54%,–
O=c1[nH]c(CNCc2cccnc2)nc2ccccc12,inactive: 0.688%,–
CN(Cc1cccnc1)C(=O)CC1C(=O)NCCN1Cc1ccc(-c2ccccc2)cc1 (stereo not given),inactive: 15.2%,–
CCC(C)NC(=O)CCn1c(-c2ccccc2)cc(C(C)=O)c1C (stereo not given),inactive: -5.58%,–
C=CCSc1nc2sc3c(c2c(=O)[nH]1)CC(C)(C)OC3,inactive: -3.72%,–
COc1cc(/C=C/C(=O)O)cc(S(=O)(=O)Nc2ccc3c(c2)OCO3)c1OC,inactive: -21.7%,–
O=C(O)COc1ccc(/C=N/NC(=O)c2cn(-c3ccccc3)nc2-c2ccccc2)cc1,inactive: 5%,–
CN(C)/C=C\C(=C/C(=O)C(F)(F)F)Nc1ccccc1Oc1ccccc1,inactive: -1.67%,–

SMILES,growth rescue (activation),Potency
COCC(C)OC(=O)c1c(N)n(CCCN2CCOCC2)c2nc3ccccc3nc12 (stereo not given),inactive: -5.66%,–
COc1ccc(C)cc1S(=O)(=O)N(C)CC(=O)NC1CCCCCC1,inactive: -6.39%,–
Cc1cc2cc(CN(Cc3ccco3)C(=O)C3CCCCC3)c(=O)[nH]c2cc1C,inactive: -17.4%,–
CC(C)C(=O)Nc1ccc(N2CCOCC2)c(S(=O)(=O)Nc2ccccc2Cl)c1,inactive: -7.24%,–
O=C1OC(/C(=C\NCc2ccccc2)[N+](=O)[O-])c2ccccc21 (stereo not given),inactive: 0.546%,–
Cc1ccc(S(=O)(=O)NN2C(=O)c3ccccc3NC2c2cccc(O)c2)cc1 (stereo not given),inactive: 4.57%,–
CC(C)c1ccc(N(C(=O)CNC(=O)c2ccco2)C(C(=O)NC2CCCC2)c2ccncc2)cc1 (stereo not given),inactive: 10.6%,–
CCc1nc2ccc(C(=O)NCCC(C)C)cn2c1N(C)Cc1ccc(OC)cc1,inactive: 15.5%,–
CC1CN(C(=O)COC(=O)c2ccc(S(=O)(=O)N(C)C)cc2)CC(C)O1 (stereo not given),inactive: 10.8%,–
CC(C)CNC(=O)CN(c1cccc(Cl)c1)S(C)(=O)=O,inactive: -9.56%,–
COc1cccc(C(=O)NCCCNC(=O)c2cccnc2)c1,inactive: 0.216%,–
O=[N+]([O-])c1ccccc1Oc1ccc(C(F)(F)F)cn1,inactive: 4.2%,–
COc1ccc(NC(=S)N2CCNC(=O)C2CC(=O)Nc2ccc(C)cc2)cc1 (stereo not given),inactive: 29.5%,–
O=C(CSc1n[nH]c(=O)n1C1CC1)Nc1ccc(OC(F)(F)F)cc1,inactive: 9.06%,–
Cc1onc(-c2c(Cl)cccc2Cl)c1C(=O)Nc1ccc(Cl)cn1,inactive: 21%,–
CC1CCN(CC(=O)Nc2cccc(C(=O)Nc3cccc(C(F)(F)F)c3)c2)CC1,inactive: 8.36%,–
COC(=O)COc1ccccc1/C=C1/NC(=O)NC1=O,inactive: 19.8%,–
CC1CCCN(C(=O)CCNC(=O)Cn2cnc3ccccc3c2=O)C1 (stereo not given),inactive: 2.81%,–
CCC1CCCCN1CCCNC(=O)c1ccc2c(=O)n(CCOC)c(=O)[nH]c2c1 (stereo not given),inactive: 6.78%,–
COc1ccc(C=C2C(=O)c3ccccc3C2=O)cc1O,inactive: -31%,–
CCCS(=O)(=O)N1CCN(S(=O)(=O)c2ccccc2[N+](=O)[O-])CC1,inactive: -4.02%,–
COc1ccc(NCc2ccc([N+](=O)[O-])s2)c(OC)c1,–,active: 12.6 µM
CC1(C)C(=O)C2(CCCCC2)C(=O)OC1c1cccn1-c1ccc([N+](=O)[O-])cc1 (stereo not given),inactive: 14.5%,–
CC(=O)Nc1nnc(SCC(=O)NC2CC2)s1,inactive: 4.46%,–
Nc1ccc(C(=O)NCCCSc2ccccc2)cc1[N+](=O)[O-],inactive: 0.956%,–
COc1cccc(C2CC(=O)C3=C(C2)Nc2ccccc2N(C(=O)CCC(=O)O)C3c2ccc(F)cc2)c1 (stereo not given),inactive: -9.18%,–
COc1cccc(C(NC(C)=O)c2nc(-c3cccc(C(C)C)c3)cs2)c1 (stereo not given),inactive: 22.6%,–

SMILES,growth rescue (activation),Potency
O=C(NC(CO)Cc1ccc([N+](=O)[O-])cc1)C(Cl)Cl (stereo not given),inactive: -25%,–
Cc1cc2c(c(N)n1)c(=O)oc1ccccc12,inactive: -9.18%,–
CC(NC(=S)Nc1c(Cl)cccc1OC(F)F)C(C)(C)C (stereo not given),inactive: -2%,–
Cc1ccnc(NC(=O)CCC(=O)N(CC(=O)NCc2ccc(F)cc2)CC2CCCO2)c1 (stereo not given),inactive: -16.1%,–
O=C(COC(=O)C1Cc2ccccc2CN1C(=O)c1ccccc1)Nc1ccc(SC(F)F)cc1 (stereo not given),inactive: 8.21%,–
O=C(/C=C/c1ccc(Cl)cc1)NCc1ccco1,inactive: -7.19%,–
CC1CCCN(CC(O)COc2ccc(-c3ccccc3)cc2)C1 (stereo not given),inactive: -75.3%,–
CCOC(=O)N1CCN(C(=O)c2c(-c3c(Cl)cccc3Cl)noc2C)CC1,inactive: 14.2%,–
O=[N+]([O-])c1ccc(NC(=S)N2CCOCC2)cc1,inactive: 16.9%,–
CC(=O)c1ccc(N2CCN(Cc3nc4ccccc4[nH]3)CC2)cc1,inactive: 4.46%,–
Cn1cc([N+](=O)[O-])c(C(=O)N/N=C/c2ccc([N+](=O)[O-])cc2)n1,inactive: 0.117%,–
Cc1ccc(CONC(=O)c2ccccc2)cc1,inactive: 24.3%,–
CCOc1ccccc1N(CC(=O)NCCOC)C(=O)CCC(=O)Nc1ccccn1,inactive: 3.44%,–
COc1ccc(OC2CCN(S(=O)(=O)c3ccc(F)cc3)CC2)cc1,inactive: 15.7%,–
CC1(C)CC(NC(=O)CSc2ccccc2)CC(C)(C)N1,inactive: 2.96%,–
O=C1c2ccccc2NC(c2ccccn2)N1NS(=O)(=O)c1ccccc1 (stereo not given),inactive: -21.1%,–
COCCn1c(SCC(=O)c2c(-c3ccccc3)n(C)c3ccccc23)nnc1-c1ccncc1,inactive: -18.5%,–
Cn1cccc1CC(=O)NNC(=S)Nc1ccccc1Cl,inactive: 14.3%,–
Cc1cc(S(=O)(=O)N2CCCC2)ccc1OCC(=O)NCc1ccccn1,inactive: 11.8%,–
COc1cccc(/C=N/Nc2cc(Cl)nc(C)n2)c1O,inactive: 7.31%,–
CC(=O)N1CCN(Cc2nc3cc(NC(=O)COc4cccc(C)c4)ccc3n2C)CC1,inactive: 6.62%,–
CCN(CC)C(=O)c1cn(CCC#N)nc1-c1ccc2c(c1)OCCO2,inactive: -0.13%,–
COc1ccccc1Nc1nc(-c2ccccc2O)nc2ccccc12,inactive: -5.46%,–
COc1ccc(NC(=O)c2ccc(NC(=O)CCS(=O)(=O)c3cccs3)cc2)cc1,inactive: 16.6%,–
